Laboratory results reported in the supplement of paper PMC4604168 (melanoma cell lines).
Some of the results follow. Repeats are few or missing, and single values can be far off.

Key:
Experiment in all cases: cell count relative to DMSO control; melanoma cells; higher = more viable cells
Conditions in all cases: library dose: standard library concentration; 72 h
[1] = tested on: IST-MEL1
[2] = tested on: LB2518-MEL
[3] = tested on: LOXIMVI
[4] = tested on: MEL-HO
[5] = tested on: MZ2-MEL
[6] = tested on: MeWo
[7] = tested on: RPMI7951
[8] = tested on: RVH-421
[9] = tested on: SkMel28
[10] = tested on: SkMel2
[11] = tested on: SkMel30
[12] = tested on: SkMel5
[13] = tested on: UACC257
[14] = tested on: UACC62
[15] = tested on: WM115
[16] = tested on: WM1716
[17] = tested on: WM1745
[18] = tested on: WM3526
[19] = tested on: WM3619
[20] = tested on: WM451Lu
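Also: cells treated in 1,536-well plates, then fixed and DAPI-stained, with nuclei counted from automated high-throughput microscope images.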

SMILES | cell count [1] | cell count [2] | cell count [3] | cell count [4] | cell count [5] | cell count [6] | cell count [7] | cell count [8] | cell count [9] | cell count [10] | cell count [11] | cell count [12] | cell count [13] | cell count [14] | cell count [15] | cell count [16] | cell count [17] | cell count [18] | cell count [19] | cell count [20]
Cc1cc([N+](=O)[O-])ccc1NS(=O)(=O)c1cc(Cl)ccc1Cl + CCCCCCCCCCCC1=C(O)C(=O)C=C(O)C1=O [Embelin] (first compound 5 µM, partner dose 6 µM) | 57.2% | 74.6% | 79.3% | 52.5% | 19.5% | 93% | 86.3% | 68.9% | 52.8% | 69.5% | 90.2% | 103% | 68.8% | 92.8% | 101% | 97.5% | 70.6% | 78.2% | 67% | 85.9%
CCN(CC)CCCCNc1ncc2cc(-c3cc(OC)cc(OC)c3)c(NC(=O)NC(C)(C)C)nc2n1 + O=S(=O)(c1ccccc1)N(CC(F)(F)F)c1ccc(C(O)(C(F)(F)F)C(F)(F)F)cc1 [T0901317] (first compound 0.5 µM, partner dose 7 µM) | 94.4% | 98.2% | 80.6% | 92% | 110% | 84% | 90.2% | 100% | 83.3% | 89.1% | 80.7% | 72.3% | 93.3% | 62.7% | 111% | 98% | 70.2% | 91.2% | 73.2% | 83.5%
COC(=O)c1sccc1S(=O)(=O)Nc1ccc(Nc2ccccc2)cc1OC + O=c1cc(-c2cccc3c2Sc2ccccc2S3)oc(N2CCOCC2)c1 [KU55933] (first compound 5 µM, partner dose 5 µM) | 95% | 132% | 129% | 76.6% | 88.3% | 123% | 88.2% | 102% | 83.3% | 78.7% | 104% | 101% | 95.8% | 92.7% | 114% | 103% | 103% | 82.6% | 80.3% | 104%
Cc1cc([N+](=O)[O-])ccc1NS(=O)(=O)c1cc(Cl)ccc1Cl + Oc1nc(-c2ccc(C(F)(F)F)cc2)nc2c1CSCC2 [XAV939] (first compound 5 µM, partner dose 10 µM) | 60.8% | 89.8% | 75.4% | 55.3% | 68.3% | 79% | 81.9% | 71.8% | 45.2% | 77.4% | 72.3% | 54.9% | 71% | 82.3% | 89.7% | 68.8% | 81.5% | 66.7% | 70.1% | 90.1%
COc1ccc(COc2ccc(Cc3cnc(N)nc3N)cc2OC)cc1 + O=C1NC(=O)/C(=C/c2ccc(-c3ccc(F)cc3O)o2)S1 [AS252424] (first compound 5 µM, partner dose 5 µM) | 102% | 98.9% | 101% | 87.2% | 94.7% | 77.4% | 92.5% | 108% | 111% | 89.8% | 112% | 91.6% | 103% | 108% | 93.2% | 109% | 97.2% | 92% | 78.8% | 106%
N#Cc1c(O)c2c(-c3ccc(-c4ccccc4O)cc3)csc2[nH]c1=O + COc1ccc(COc2ccc(Cc3cnc(N)nc3N)cc2OC)cc1 [GW2580] (first compound 10 µM, partner dose 5 µM) | 96.8% | 103% | 114% | 92.8% | 96.6% | 101% | 77.8% | 128% | 147% | 86.1% | 122% | 89.3% | 90.5% | 126% | 95.5% | 99.1% | 79.1% | 78.3% | 95.8% | 94.8%
COc1cc2ncnc(Nc3ccc(Oc4ccccc4)cc3)c2cc1OC + CCCCCCCCCCCC1=C(O)C(=O)C=C(O)C1=O [Embelin] (first compound 10 µM, partner dose 6 µM) | 71.9% | 87.6% | 77.4% | 83.6% | 92% | 92.3% | 92.5% | 88.9% | 133% | 101% | 99.2% | 70.2% | 99.2% | 99% | 85.8% | 91.1% | 62.6% | 67.2% | 90.4% | 95.9%
COc1ccc(-c2ccc3c(N4CCOCC4)nc(N4C[C@@H](C)O[C@@H](C)C4)nc3n2)cc1CO + O=C1NC(=O)/C(=C/c2ccc(-c3ccc(F)cc3O)o2)S1 [AS252424] (first compound 0.1 µM, partner dose 5 µM) | 90% | 79.2% | 105% | 70.6% | 71.9% | 80.3% | 72.8% | 102% | 106% | 68.2% | 68.7% | 68.1% | 110% | 126% | 84% | 106% | 76% | 76% | 62% | 75.9%
O=S(=O)(c1ccccc1)N(CC(F)(F)F)c1ccc(C(O)(C(F)(F)F)C(F)(F)F)cc1 + Oc1cc(-c2nc(-c3ccccc3)[nH]c2-c2ccncc2)ccc1Cl [L779450] (first compound 7 µM, partner dose 1 µM) | 80.2% | 80.9% | 106% | 78.4% | 88.1% | 76.9% | 72% | 81.7% | 28.1% | 28.5% | 81.9% | 71.5% | 79.3% | 48.7% | 37.6% | 73.7% | 58.6% | 55.5% | 71.9% | 49.7%
O=S(=O)(c1ccccc1)N(CC(F)(F)F)c1ccc(C(O)(C(F)(F)F)C(F)(F)F)cc1 + COc1cc(N2CCC(N3CCN(C)CC3)CC2)ccc1Nc1ncc(Cl)c(Nc2ccccc2S(=O)(=O)C(C)C)n1 [NVP-TAE684] (first compound 7 µM, partner dose 0.4 µM) | 89.2% | 85.9% | 96.5% | 90.7% | 82.9% | 64.1% | 83.5% | 91.1% | 76.7% | 63.6% | 105% | 69.1% | 86.2% | 72.8% | 82.6% | 97.9% | 42.6% | 71.2% | 72.8% | 76.3%
CCN(CC)CCCCNc1ncc2cc(-c3cc(OC)cc(OC)c3)c(NC(=O)NC(C)(C)C)nc2n1 + CC(C)CCN1c2nc(Nc3cc(F)c(O)c(F)c3)ncc2N(C)C(=O)C1C [BID1870] (first compound 0.5 µM, partner dose 1 µM) | 81.3% | 95.9% | 55.3% | 74.2% | 82.2% | 55.5% | 93.9% | 80% | 45% | 75.5% | 78.9% | 66.8% | 81.3% | 69.2% | 95.7% | 67.6% | 96.3% | 59.5% | 70.8% | 74.8%
CCN(CC)CCCCNc1ncc2cc(-c3cc(OC)cc(OC)c3)c(NC(=O)NC(C)(C)C)nc2n1 + COc1cc2ncnc(Nc3ccc(Oc4ccccc4)cc3)c2cc1OC [SrcI1] (first compound 0.5 µM, partner dose 10 µM) | 107% | 93.7% | 74.3% | 116% | 99.3% | 78.1% | 99.8% | 118% | 118% | 103% | 101% | 65.3% | 101% | 57.6% | 73.6% | 87.1% | 90.8% | 69.4% | 137% | 63.8%
Oc1cc(-c2nc(-c3ccccc3)[nH]c2-c2ccncc2)ccc1Cl + c1cc(-c2cnn3cc(-c4ccc(OCCN5CCCCC5)cc4)cnc23)ccn1 [Dorsomorphin] (first compound 1 µM, partner dose 2 µM) | 80.8% | 71.2% | 90.3% | 69.4% | 64.3% | 68.2% | 73.6% | 73.3% | 56.6% | 40.3% | 84.2% | 47.8% | 75.9% | 49.3% | 62.2% | 65.8% | 34.5% | 39.6% | 79.7% | 42.3%
COc1ccc(-c2ccc3c(N4CCOCC4)nc(N4C[C@@H](C)O[C@@H](C)C4)nc3n2)cc1CO + O=c1cc(-c2cccc3c2Sc2ccccc2S3)oc(N2CCOCC2)c1 [KU55933] (first compound 0.1 µM, partner dose 5 µM) | 89.2% | 74.4% | 105% | 74.4% | 90.2% | 73.5% | 65.1% | 99.7% | 69.6% | 75.5% | 74.8% | 64.6% | 90.6% | 87.5% | 94.2% | 77.7% | 84% | 69.1% | 46.4% | 79%
O=C1NC(=O)/C(=C/c2ccc(-c3ccc(F)cc3O)o2)S1 + CC(C)CCN1c2nc(Nc3cc(F)c(O)c(F)c3)ncc2N(C)C(=O)C1C [BID1870] (first compound 5 µM, partner dose 1 µM) | 84.7% | 95.9% | 31.7% | 61.4% | 77.8% | 55.5% | 89.9% | 55.6% | 55.4% | 77.1% | 75.7% | 59.9% | 76.4% | 53.8% | 94% | 84.5% | 78.1% | 60.5% | 67.9% | 85.2%
Oc1nc(-c2ccc(C(F)(F)F)cc2)nc2c1CSCC2 + CC(C)CCN1c2nc(Nc3cc(F)c(O)c(F)c3)ncc2N(C)C(=O)C1C [BID1870] (first compound 10 µM, partner dose 1 µM) | 94.7% | 77.7% | 84.6% | 79% | 34% | 78.5% | 76.1% | 82.8% | 72.8% | 77.9% | 85% | 61.4% | 69.3% | 71.6% | 92.9% | 63.5% | 70.8% | 74.2% | 85.3% | 70%
Cn1cc(/C=C2\C(=O)Nc3cccnc32)c2ccccc21 + CCCCCCCCCCCC1=C(O)C(=O)C=C(O)C1=O [Embelin] (first compound 2 µM, partner dose 6 µM) | 55% | 86.8% | 56.5% | 67.7% | 94.3% | 107% | 81.2% | 76.3% | 94.3% | 91.9% | 89.8% | 61.1% | 67.9% | 86.3% | 94.5% | 80.9% | 73.5% | 93.8% | 78.5% | 82.3%
